Test results as given in the antibiotic and cytotoxicity screens of Wong et al. (2023).
This is one part of the list.

Experiments:
[1] = system: HSkMC (human skeletal muscle cells); assay: cytotoxicity call (relative viability < 0.9); conditions: 10 µM
[2] = system: HepG2; assay: cytotoxicity call (relative viability < 0.9); conditions: 10 µM
[3] = system: S. aureus RN4220; assay: growth inhibition call (relative growth <= 0.2); conditions: 50 µM

Row | Compound | cytotoxicity call [1] | cytotoxicity call [2] | growth inhibition call [3]
1 | C[C@@H]1CCCCO[C@H](CN(C)S(=O)(=O)c2cn(C)cn2)[C@@H](C)CN([C@H](C)CO)C(=O)c2cc(NS(=O)(=O)c3cn(C)cn3)ccc2O1 | inactive | inactive | inactive
2 | COc1ccc(S(=O)(=O)N(C)C[C@@H]2Oc3c(NC(=O)C4CCOCC4)cccc3C(=O)N([C@@H](C)CO)C[C@H]2C)cc1 | inactive | inactive | inactive
3 | O=C(O)c1ccc2cc(-c3ccc(O)c(C45CC6CC(CC(C6)C4)C5)c3)ccc2c1 | inactive | inactive | active
4 | CC(=O)n1cc([C@@H]2C=C(C(=O)N3CCN(Cc4ccccc4)CC3)O[C@H](OCc3ccc(COC(=O)NCCCCCC(=O)NO)cc3)C2)c2ccccc21 | inactive | inactive | inactive
5 | C[C@H]1CN([C@@H](C)CO)C(=O)c2cc(NC(=O)Cc3ccccc3)ccc2O[C@H]1CN(C)Cc1ccc(C(=O)Nc2ccccc2N)cc1 | inactive | inactive | inactive
6 | CCS(=O)(=O)Nc1ccc2c(c1)C(=O)N(C)[C@H]1CC[C@@H](CC(=O)NCCCN3CCOCC3)O[C@H]1CO2 | inactive | inactive | inactive
7 | C[C@@H]1CN([C@@H](C)CO)C(=O)c2cccc(NC(=O)C3CC3)c2O[C@@H]1CN(C)C(=O)Nc1ccc2c(c1)OCO2 | inactive | inactive | inactive
8 | COCC(=O)N1CC(=O)N2[C@H](CO)[C@@H](c3ccc(C#Cc4cccnc4)cc3)[C@H]2C1 | inactive | inactive | inactive
9 | Cc1ccc(S(=O)(=O)N(C)C[C@H]2OCCCC[C@@H](C)Oc3ccc(NC(=O)Nc4ccc(F)cc4)cc3C(=O)N([C@H](C)CO)C[C@@H]2C)cc1 | inactive | inactive | inactive
10 | C[N+](C)(C)CCCC[C@@H]1NC(=O)[C@H]2C[C@@H](C(=O)NCCCCCNC(=O)CS)[C@@H](c3cccc(OCCO)c3)N2C1=O | inactive | inactive | inactive
11 | COC(=O)c1c(CC[C@@H](CO)NC(=O)N2CCC[C@H]2Cn2cc(Cc3ccccc3)nn2)oc(C(C)=O)c1C(=O)OC | inactive | inactive | inactive
12 | Cc1noc(C)c1S(=O)(=O)Nc1cccc2c1O[C@H](CN(C)S(=O)(=O)c1ccccc1)[C@H](C)CN([C@H](C)CO)C2=O | inactive | inactive | inactive
13 | COc1ccc(S(=O)(=O)Nc2cccc3c2O[C@H](CN(C)CC2CC2)[C@@H](C)CN([C@H](C)CO)C3=O)cc1 | inactive | inactive | inactive
14 | C[C@@H]1CN([C@H](C)CO)C(=O)c2cc(NC(=O)CCCN(C)C)ccc2O[C@@H]1CN(C)Cc1ccc(Oc2ccccc2)cc1 | inactive | active | inactive
15 | C[C@H](CO)N1C[C@H](C)[C@H](CN(C)CC2CCCCC2)OCCCC[C@H](C)Oc2ccc(NS(=O)(=O)c3cccs3)cc2C1=O | inactive | inactive | inactive
16 | CCOC(=O)c1c[nH][nH]c1=O | inactive | inactive | inactive
17 | C[C@@H]1CCCCO[C@@H](CN(C)S(=O)(=O)c2cn(C)cn2)[C@@H](C)CN([C@@H](C)CO)C(=O)c2cc(NS(=O)(=O)c3ccc(F)cc3)ccc2O1 | inactive | inactive | inactive
18 | C[C@@H]1CCCCO[C@H](CN(C)C(=O)Nc2ccccc2)[C@@H](C)CN([C@H](C)CO)C(=O)c2cc(NS(=O)(=O)c3ccc(F)cc3)ccc2O1 | inactive | inactive | inactive
19 | CC(C)NC(=O)N(C)C[C@H]1OCCCC[C@H](C)Oc2ccc(NC(=O)Nc3cccc4ccccc34)cc2C(=O)N([C@@H](C)CO)C[C@H]1C | inactive | inactive | inactive
20 | COCCNC(=O)C[C@H]1C[C@@H]2c3cc(NC(=O)COC)ccc3O[C@@H]2[C@@H](CO)O1 | inactive | inactive | inactive
21 | CN(C)CC(=O)N[C@H]1C=C[C@@H](CC(=O)NCCN2CCCCC2)O[C@H]1CO | inactive | inactive | inactive
22 | C=CCCCCCCCCC(=O)O | inactive | inactive | inactive
23 | CN1C[C@H](C(N)=O)CC1=O | inactive | inactive | inactive
24 | C[C@H](CO)N1C[C@H](C)[C@@H](CN(C)Cc2ccc(C(=O)Nc3ccccc3N)cc2)Oc2c(NC(=O)c3ccc(-c4nccs4)cc3)cccc2C1=O | inactive | inactive | inactive
25 | C[C@H]1CN([C@@H](C)CO)C(=O)c2cccc(NC(=O)Nc3ccc4c(c3)OCO4)c2O[C@H]1CN(C)S(C)(=O)=O | inactive | inactive | inactive
